# According to paper PMC12040169 (PLOS Biology, 2025):
# This is one part of the list.
# Test system: T1, C. trachomatis L2/434/Bu expressing GFP (CTL2-GFP)
# T1 construct: L2/434/Bu GFP intracellular growth in HeLa cells
# Set-up: species or system HeLa; C. trachomatis total inclusion area by high-content imaging, normalised to DMSO
# Settings: total inclusion area; 28.5 h, 10 µM; inhibitor
# Procedure, shortened: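 High-content images of fixed, Hoechst-stained infected cultures supply inclusion area and count (growth) plus nuclei number (viability), complementing bulk GFP/resorufin fluorescence. MIC determination is unchanged from the primary assay.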
row,Structure (SMILES),% of control remaining
1,CN(CC1CCCOC1)C(=O)c1ncsc1Nc1ccccc1 (stereo not shown) [CBK304250],71.1705
2,Cc1ccc(C)c(-c2csc3c(=O)[nH]cnc23)c1 [CBK288556],105.274
3,O=c1/c(=C/c2ccncc2)sc2n1CN(c1cccc(F)c1)CN=2 [CBK264340],94.4639
4,COc1ccc(/C(N)=N/OC(=O)C(C)Oc2ccc(Br)cc2)cc1OC (stereo not shown) [CBK266807],98.4158
5,CC(C)COc1ccc(-c2nn(-c3ccccc3)cc2CSC(=N)N)cc1 [CBK264278C],0.1325
6,O=C(NCCOc1ccc(-c2ccc(F)cc2)nn1)c1ccc(Br)o1 [CBK294429],108.289
7,O=C(c1cncnc1)N1CCN(C(=O)c2ccco2)CC1 [CBK144477],110.58
8,CCCNS(=O)(=O)c1cc2c3c(c1)c(C)cc(=O)n3CCC2 [CBK307547],35.4799
9,O=C(CN1CCOCC1)Nc1sc2c(c1C(=O)Nc1ccc(Cl)cc1)CCC2 [CBK265056],104.315
10,O=C(O)C1CCCN1C(=O)c1ccc(C#CC2(O)CCCCC2)cc1 (stereo not shown) [CBK287022],102.576
11,CCCCOc1ccc(S(=O)(=O)N2CCN(c3cccc(C)c3C)CC2)cc1 [CBK099293],96.7357
12,CCN(CC)CC(O)Cn1c(-c2ccccc2Cl)nc2ccccc21 (stereo not shown) [CBK262495],114.984
13,CCOC(=O)c1cnc(SC)nc1N1CCOCC1 [CBK018971],30.986
14,CCCc1nc(CN2CCNC(=O)C2c2ccccc2C(F)(F)F)no1 (stereo not shown) [CBK304123],89.1875
15,O=C1COCC(=O)N1c1ccccn1 [CBK006233],46.1032
16,O=C(Nc1ccc2c(c1)OCO2)Nc1c(Br)cnc2ncccc12 [CBK105596],90.4192
17,Brc1n[nH]c2nc(NCc3ccco3)ncc12 [CBK022327],90.9198
18,CC(=O)C(Sc1nc(N2CCOCC2)nc(N2CCOCC2)n1)C(=O)Nc1ccccc1 (stereo not shown) [CBK266643],111.776
19,CCCC(=O)c1ccc(S(=O)(=O)N2CCCN(Cc3ccc(F)c(C#N)c3)CC2)cc1 [CBK062910],84.0319
20,O=C(NCCN1CCC(O)(c2cccc(F)c2)CC1)C1CC=CCC1 (stereo not shown) [CBK282451],99.0566
21,CC(C)(C)NC(=O)COc1ccc(CNc2nc[nH]n2)cc1 [CBK288179],105.684
22,C[C@H](Nc1nc(-c2cccc(/C=C/C(=O)O)c2)cnc1N)c1ccccc1 [CBK063754],106.208
23,CC(=O)c1ccc(OCc2nc(N)nc(Nc3ccccc3)n2)cc1 [CBK297155],88.9561
24,CCOC(=O)CC(=O)CSc1nc(N)c2c3c(sc2n1)CCCC3 [CBK264942],93.1862
25,COc1cccc(NC(=O)CCCC(=O)O)c1 [CBK261324],106.399
26,CNC(=O)CCc1ccccc1NC(=O)NCc1cnc(SC)n1C [CBK307507],92.2627

row,Structure (SMILES),% of control remaining
1,COc1cc(-c2nc3ccccn3c2/N=C/c2ccc(-c3ccc([N+](=O)[O-])cc3)o2)ccc1O [CBK262288],86.2031
2,COc1cc(C)c(CN2CCN(C(=O)COc3cc4ccccc4cc3C(=O)O)CC2)cc1OC [CBK296968],72.477
3,COc1ccc2[nH]cc(CCNC(=O)c3cc(C)[nH]n3)c2c1 [CBK116206],95.6642
4,CC(=O)c1cc2c(N)c(C(N)=O)sc2nc1C [CBK100769],69.1793
5,CS(=O)(=O)c1ccc(-c2cccc(COC3CCN(C(=O)Cc4ccc(C#N)cc4)CC3)c2)cc1 [CBK149513],76.6323
6,Cc1nn(C)c2ncc(C(=O)N(C)Cc3ccc(C(C)(C)C)cc3)cc12 [CBK305657],45.8955
7,CCCn1c(NC(=O)C2CCCN2S(=O)(=O)CC)nc2ccccc21 (stereo not shown) [CBK295624],105.495
8,CC(=O)Nc1cccc(-n2ncc(-c3cccnc3)n2)c1 [CBK112811],107.95
9,Cc1cccc(C2(Cn3cncc3-c3cnn(C)c3)CCOCC2)c1 [CBK281765],104.076
10,CCOC(=O)N1CCC(NC(=O)c2ccc3nc4ccccc4c(=O)n3c2)CC1 [CBK294447],116.484
11,CCc1cccc2c1Sc1ccccc1CC2N1CCN(C)CC1 (stereo not shown) [CBK026248G],22.0254
12,Cc1noc(NS(=O)(=O)c2ccc(NC(=O)c3cc(-c4ccccc4Cl)nc4ccccc34)cc2)c1C [CBK296108],110.13
13,Cc1n[nH]c(C)c1Sc1ccccc1/N=C/c1ccccc1O [CBK262068],112.931
14,CC(C)(N)CC(=O)N1CCN(c2ncccn2)CC1 [CBK144532],105.702
15,O=C(CSc1ccccc1)Nc1cnc(-c2ccc(F)cc2)c(-c2ccco2)n1 [CBK037196],121.046
16,Fc1ccc(-c2ccc(N3CCN(c4ccncc4)CC3)nc2)cc1Cl [CBK036821],80.4253
17,COCC(=O)N1CCC(NC(=O)N(CCc2ccccc2)Cc2ccccc2)CC1 [CBK174877],34.1942
18,COc1ccc(OCCN2C(=O)CNC2=S)cc1 [CBK007177],72.9055
19,Nc1nc(CC(=O)N2CCCCC2)cs1 [CBK049866],75.736
20,CCn1c(=O)n(CC(=O)N2CCCCCC2)c2cccnc21 [CBK283942],52.4784
21,Cc1csc(CN(C)C(=O)c2cc3sccc3[nH]2)n1 [CBK304334],62.7356
22,Cc1cccc(N2C(=O)c3ccc(C(=O)OC(C(=O)c4ccccc4)c4ccccc4)cc3C2=O)c1 (stereo not shown) [CBK265098],105.31
23,CSc1ccccc1C(=O)NCCCn1ccnc1 [CBK269749],80.3377
24,Cc1ccc(SCc2ccc(C(=O)NCCN3CCOCC3)cc2)cc1 [CBK269314],102.885
25,CN(CC(=O)Nc1cncc(OC2CCNCC2)n1)C(=O)c1ccccc1 [CBK028440T],94.7007
26,CCCCN(C)c1nccnc1-c1cccnc1 [CBK037631],139.133
